# Test results reported in the supplement of paper PMC3334620.
# Whole data set: some 33,000 sequences, median “E-score (-0.5 to 0.5)” near -0.054, cut for the highest 2% near 0.35. The list shows a part of the results.
# Biological target: T1, Stb5 (UniProt P38699)
# T1 sequence: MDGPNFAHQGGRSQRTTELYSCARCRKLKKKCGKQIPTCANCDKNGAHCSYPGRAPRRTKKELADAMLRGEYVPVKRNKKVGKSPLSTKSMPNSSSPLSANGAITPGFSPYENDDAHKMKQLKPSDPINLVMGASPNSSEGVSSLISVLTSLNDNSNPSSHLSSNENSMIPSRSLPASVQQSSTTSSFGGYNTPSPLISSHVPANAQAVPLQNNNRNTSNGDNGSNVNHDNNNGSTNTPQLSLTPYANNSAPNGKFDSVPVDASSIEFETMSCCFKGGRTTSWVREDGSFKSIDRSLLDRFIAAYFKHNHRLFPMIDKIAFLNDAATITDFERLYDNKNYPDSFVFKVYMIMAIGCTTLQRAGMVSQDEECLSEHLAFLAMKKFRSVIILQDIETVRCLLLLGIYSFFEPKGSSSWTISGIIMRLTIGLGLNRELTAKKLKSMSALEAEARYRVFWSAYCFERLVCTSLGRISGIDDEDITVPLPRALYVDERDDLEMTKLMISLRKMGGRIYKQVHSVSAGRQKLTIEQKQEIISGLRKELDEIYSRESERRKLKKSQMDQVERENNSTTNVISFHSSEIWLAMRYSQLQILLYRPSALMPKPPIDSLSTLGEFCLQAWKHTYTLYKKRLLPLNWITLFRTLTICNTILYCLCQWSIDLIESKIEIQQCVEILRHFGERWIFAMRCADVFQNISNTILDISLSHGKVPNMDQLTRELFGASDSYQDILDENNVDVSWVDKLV
# Experiment: PBM E-score (8-mer binding enrichment) (E-score (-0.5 to 0.5)); higher = stronger / more preferred TF binding; most listed sequences are background and not binding sites
# Settings: protein concentration: 200 nM; construct: GST-full length
# In short: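 Yeast transcription factors, full-length or as DNA-binding domains, were expressed with a GST tag using PURExpress in vitro transcription/translation. At about 100-200 nM they were applied to universal all-10-mer Agilent arrays, double-stranded by primer extension on fresh or once-stripped slides. Fluorescent anti-GST detected bound protein, and masliner normalised the scans. E-scores for ungapped eight-base words, pooled with reverse complements, came from the Universal PBM Analysis Suite.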
row,Sequence,PBM E-score
1,AGAAGAAT,0.00058
2,AGTCCCCC,-0.191
3,AAGGCTCT,-0.214
4,CACTCACC,-0.105
5,ATGTCCCC,0.224
6,ATTACTTC,-0.0445
7,CCTTTGGA,-0.123
8,CTCTTAAA,-0.0109
9,CTTATATC,0.0525
10,CCTAATCA,0.0412
11,AGATCCCC,0.0566
12,AGGATAGA,-0.11
13,AGCCCATG,-0.257
14,ATGGCATA,-0.195
15,AGTCTCGG,0.151
16,ACGCTAAT,0.039
17,CAGGACGG,0.171
18,ACAGTGCT,-0.197
19,ATCTCAAT,-0.196
20,GGCTGGAC,-0.046
21,CTCCTTAA,0.0854
22,AGTCACTG,-0.182
23,ATTTAAAC,0.0377
24,ATATGTCG,0.083
25,ACGAACTC,-0.0109

row,Sequence,PBM E-score
1,AATATACA,-0.0649
2,GGTGGTGA,-0.012
3,CGTGTTCA,-0.0266
4,TAACCTTA,-0.0347
5,CGGCCAAG,0.104
6,GGGTAGAC,-0.113
7,CTAGTCAA,-0.251
8,ACCATGAT,-0.0792
9,TTGGCAAA,-0.152
10,TAATGGCA,-0.0515
11,CTCTTGCA,-0.0449
12,ACATCCTC,0.0595
13,ACCTTGAC,-0.0345
14,ATCTCACC,0.143
15,CGCTCGCC,0.0794
16,AGTCTCCA,-0.211
17,CTCCGCGA,0.247
18,GGTGTGTA,0.139
19,GCTCAAGA,-0.194
20,CTGTATTC,0.117
21,CCATTGCC,-0.0272
22,CCGATGAG,0.208
23,CCGAATCC,0.124
24,GCATGTCA,-0.0844
25,GCTTCAAC,-0.205

row,Sequence,PBM E-score
1,CGTCGAAA,0.0937
2,CCCTCCGG,0.122
3,GGCCGAAC,0.123
4,TCGTATAA,-0.00253
5,CCAAAGAG,-0.1
6,AATTTTGG,-0.0529
7,AAATAACC,0.119
8,GAGGTGAA,0.0477
9,CCCACATC,-0.103
10,CAACCGTG,-0.0323
11,ACGAGTAC,-0.154
12,ATACGCCA,-0.146
13,CGGCGGGA,0.347
14,AAGGAATA,-0.0476
15,CACGCCCA,-0.12
16,AGAGGAGG,-0.281
17,GGTCAACC,-0.0755
18,CCTCAGCC,-0.197
19,GAATCGTA,-0.103
20,AGCTTTAA,-0.123
21,GAGAGCAA,-0.183
22,AGATTACA,0.0903
23,GCTAAACC,-0.0321
24,ACTAAGAC,-0.135
25,GTTCGCGA,-0.275

row,Sequence,PBM E-score
1,CTCGTCAA,-0.18
2,CTGTCCCA,-0.206
3,GAGCCGCC,0.24
4,ACCGAGAC,0.0851
5,AGTTATAC,0.143
6,ACCGGAGC,0.295
7,CGGCATCC,0.224
8,AAGCAGGT,-0.209
9,CAACCTCG,-0.0247
10,CGAATACG,0.0294
11,CTGTAAAC,-0.297
12,CGTATACC,-0.102
13,TAGAGGGA,-0.306
14,ACGCCACA,-0.101
15,ACCTCCCT,-0.321
16,CTTCCCTC,-0.226
17,AGTAAGTC,0.00667
18,CCAATCTA,-0.0421
19,AATCCCGC,0.398
20,GCCTGACA,-0.0672
21,CTATCTAC,-0.0473
22,TACCAACA,-0.22
23,TCTGTGCA,-0.195
24,TGGAGAAA,-0.0822
25,ACATCTCT,0.00397

row,Sequence,PBM E-score
1,CTAGCTTC,-0.161
2,AACATTTG,-0.145
3,AAAACGCG,0.0108
4,GGCAAAAA,0.2
5,AGTCGTCA,-0.27
6,ACCACCTC,0.0751
7,TGGCCAAA,-0.0702
8,CCCTACAA,-0.185
9,GGAGGGTA,-0.0387
10,CGCCAGTA,0.00181
11,CAGTTTCC,-0.157
12,GATTCGCC,-0.0633
13,GATCGTAC,0.0269
14,AAGGTCCG,0.442
15,GTATACGA,-0.123
16,AATGAACA,-0.137
17,CATCCGGG,0.116
18,TTAAACAA,-0.0423
19,CAAAAGGC,-0.00412
20,GGCACGCC,0.00113
21,CATTTTCC,0.104
22,CATTGATC,-0.0431
23,ATGTATAC,-0.0848
24,CGGGCCTA,0.437
25,GACGAGCC,-0.237

row,Sequence,PBM E-score
1,GAACTTTA,0.113
2,CGGCCACA,0.267
3,ACGACCCA,-0.191
4,GCATGCTA,-0.103
5,ATGAATGG,0.165
6,AGGCTCAA,-0.0651
7,ACGCGTAA,-0.0929
8,CGCAATTC,-0.00924
9,CAAAGCGC,0.175
10,ACACGGCG,0.2
11,CGGACCAG,0.0937
12,ACCCGGAT,0.145
13,ACCACAGG,-0.14
14,ATCCCGCC,0.334
15,ATCCTTAG,-0.0576
16,ATCTCACG,-0.0419
17,AGATAGAT,-0.178
18,GGCTATAA,0.203
19,GCAACAGA,-0.0274
20,AACCTCAT,-0.22
21,ACGTGCGA,-0.0649
22,CTCACCAA,-0.173
23,ATGGAATC,-0.123
24,GCTGGCAC,-0.112
25,CAGCACCC,0.0571

row,Sequence,PBM E-score
1,ATCAAGAG,-0.215
2,ATTTGTCC,0.324
3,ATTGGACC,0.0306
4,AACCGCAA,0.12
5,CCAAAGCC,0.00656
6,CCGTCTAG,0.191
7,ACACAGTC,-0.0536
8,GTCTCTAA,-0.221
9,ACTACATA,-0.172
10,CTGATGCC,0.0203
11,CTAATCAC,0.189
12,CTTTCTCC,-0.0508
13,AAGGACTG,-0.365
14,GCCCTAAC,0.0652
15,GTTCCCGA,0.235
16,CTCATGGC,-0.00167
17,TAGCTATA,-0.193
18,GGACAAAA,0.267
19,CGGCATTC,0.285
20,GGGGTATA,0.26
21,ACATGGAC,-0.235
22,AGCCCACA,-0.26
